Experimental data published in the supplement of paper PMC12217912.
Some of the results follow. The full chains were built here from the parent and the listed change. Inactive controls read about 0.05.

B1: TEV protease; numbered along this chain (parent)
chain: MGESLFKGPRDYNPISSSICHLTNESDGHTTSLYGIGFGPFIITNKHLFRRNNGTLVVQSLHGVFKVKDTTTLQQHLVDGRDMIIIRMPKDFPPFPQKLKFREPQREERICLVTTNFQTKSMSSMVSDTSCTFPSGDGIFWKHWIQTKDGQCGSPLVSTRDGFIVGIHSASNFTNTNNYFTSVPKNFMELLTNQEAQQWVSGWRLNADSVLWGGHKVFMVKPEEPFQPVKEATQL

Variants of: B1
Experiment: raw area under fraction-flipped curve 0-4 h after induction (AUC4h, not background-subtracted), DNA-recorder readout of cleavage of the substrate (dimensionless); higher = more cleavage of the substrate by the protease variant
Conditions: temperature: 34 °C; time window: 0-4 h after rhamnose induction
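Note: Bxb1 expression induced with 0.2% (w/v) L-rhamnose at OD600 near 0.5, cultures sampled hourly, flipped fraction per protease–substrate barcode pair counted by paired-end Illumina sequencing.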

Variant	area with substrate ENLYFQC	area with substrate ENLYFQD	area with substrate ENLYFQI	area with substrate ENLYFQL	area with substrate ENLYFQM	area with substrate ENLYFQN	area with substrate ENLYFQP	area with substrate ENLYFQR	area with substrate ENLYFQS	area with substrate ENLYFQT	area with substrate ENLYFQV	area with substrate ENLYFQW	area with substrate ENLYFQY	area with substrate ENLYFQF	area with substrate ENLYFQQ	area with substrate ENLYFQG	area with substrate ENLYFQK	area with substrate ENLYFQE	area with substrate ENLYFQH
D128I	0.121	0.0787	0.0664	0.0727	0.0919	0.0982	0.0596	0.0566	0.127	0.0622	0.0361	0.0775	0.0785	–	–	–	–	–	–
D128K	0.14	–	–	0.0511	–	0.0813	–	0.0538	0.0968	0.0553	–	0.0705	–	0.0853	0.0532	–	–	–	–
D128W	0.229	–	0.0593	0.056	0.169	0.111	–	–	0.202	0.0408	–	0.0822	–	0.119	–	0.202	0.0707	–	–
D128Y	0.174	0.0819	–	–	0.128	–	–	0.071	0.14	–	–	0.0567	0.119	–	0.102	0.187	0.0572	0.0646	0.0771
P134H	0.0962	0.0619	0.0471	0.0622	0.0726	0.0623	0.048	0.0557	0.0764	0.062	0.072	0.0494	0.0831	0.0606	–	0.0842	0.0552	–	0.0705
G136L	0.113	0.0597	0.0579	0.0545	–	0.104	–	0.061	0.104	0.0702	0.0767	0.0716	–	0.0739	0.0705	0.113	0.0678	–	0.0882
G136N	0.095	0.0744	0.058	0.0626	0.106	0.107	0.0686	0.0613	0.112	0.0737	0.0633	0.0684	0.0921	–	–	0.0735	–	–	–
W144M	0.0994	–	0.0608	0.0498	0.0747	0.0701	0.0588	0.0522	0.0884	0.0587	0.0514	0.0636	0.077	0.0549	0.0722	–	–	–	–
W144P	0.0853	–	0.0556	0.0537	–	0.0642	–	0.052	0.0852	0.0556	0.0703	–	0.0688	–	–	0.0809	0.0555	–	0.0713
C152A	0.0892	0.0656	0.0604	0.0442	–	0.0575	–	0.0555	0.0759	0.0566	0.0613	0.0555	–	0.0812	–	0.0626	0.0577	–	0.0668
C152K	0.0094	–	0.0634	0.0537	–	–	–	0.0841	0.0621	0.0525	–	0.0588	0.0659	–	–	–	0.0563	–	0.084
C152V	0.0737	–	0.0541	0.0516	–	0.0722	–	0.0573	0.0622	0.06	0.0663	0.0609	0.0573	–	0.0497	0.0551	0.0589	0.0619	–
R160Y	0.119	–	–	0.0797	0.0878	–	0.0486	0.0707	0.105	0.0657	–	0.0611	0.089	0.0882	–	0.0859	0.0638	0.0761	0.101
G162C	0.0972	0.0705	–	0.0618	0.0777	0.0698	0.0663	0.0631	0.095	0.0702	0.0629	0.0536	0.0734	0.0687	0.0658	0.0978	0.0535	–	0.0867
H168K	0.0532	–	0.0546	–	0.0546	0.041	–	0.0424	0.0575	0.0526	0.0647	0.0438	–	0.0719	–	–	0.0573	–	–
H168M	0.0618	–	0.0392	0.0685	0.0633	0.0574	–	0.0573	0.0622	0.067	–	0.0559	0.0667	–	–	–	–	–	–
H168Y	0.0668	0.0678	0.0552	0.053	0.0559	0.0609	–	0.0533	0.0579	0.0657	0.0553	0.051	–	–	–	–	0.0437	0.0632	0.0638
T176M	0.0825	0.0669	–	0.0593	0.072	0.063	–	0.0707	0.0736	0.0742	0.0557	0.0468	–	–	–	–	0.0515	–	0.0805
T176S	0.0766	0.0687	–	0.0594	0.0984	0.0749	0.0476	–	0.0849	0.0576	0.0507	0.0667	0.0714	–	–	0.0797	0.0658	–	–
P184H	0.0969	–	0.0555	0.0545	0.063	0.0532	0.0491	–	0.0726	–	–	0.0785	–	–	–	0.0516	0.0446	–	–
P184L	0.0622	–	0.0532	0.0481	0.0532	0.054	0.056	–	0.0622	–	0.0655	0.062	0.0564	0.0762	0.0446	–	0.0379	–	0.0594
P184W	0.0719	–	0.0469	0.0569	0.0639	0.0589	–	0.0491	0.0624	0.0355	0.0561	0.0649	0.0687	–	–	0.0266	0.0482	–	0.0612
T192G	0.118	–	–	0.0675	0.0614	–	–	–	0.0862	–	0.0635	0.0503	–	0.0646	–	0.104	0.0586	–	0.0645
T192I	0.106	–	0.0574	0.0747	0.0851	0.0922	–	0.0592	0.094	0.0694	0.0592	0.0707	0.0838	–	0.106	0.0821	0.0592	0.06	0.0807
V200I	0.148	–	–	0.0424	–	0.085	0.0709	–	0.105	0.113	–	–	–	–	–	0.148	–	–	–
W203A	0.0547	0.0487	0.0543	–	0.0622	0.0673	–	0.0645	0.074	0.0616	0.0478	0.0562	–	0.0584	–	0.0748	0.0672	–	–
D208E	0.0891	0.0463	–	–	0.0665	–	–	–	0.101	0.0774	–	–	–	0.074	0.059	–	–	–	–
D208K	0.0831	–	0.0795	–	–	–	–	–	0.0819	–	0.044	–	–	–	–	0.0738	–	–	–
